Blank lines part the entries; values can stand above or below the binder they belong to.
Biological target: T1, recombinant human TNFα (CytoLab) (human, UniProt P01375 fragment)
T1 construct: coated on the ELISA plate at 1 µg/ml; also called Tumour necrosis factor alpha
Assay: ELISA on coated human TNFα

T1 sequence (P01375 77-233 limits assumed): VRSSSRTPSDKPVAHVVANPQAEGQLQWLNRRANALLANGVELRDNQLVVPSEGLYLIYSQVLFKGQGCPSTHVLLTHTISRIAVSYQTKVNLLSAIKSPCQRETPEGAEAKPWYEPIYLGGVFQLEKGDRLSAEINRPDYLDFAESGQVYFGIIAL

A450 (AU): 1.03 AU
B1: TNFα dAb Fc variant K42D (Fc fusion, name in Kabat numbering)
chain: DIQMTQSPSSLSASVGDRVTITCRASQAIDSYLHWYQQKPGDAPKLLIYSASNLETGVPSRFSGSGSGTDFTLTISSLLPEDFATYYCQQVVWRPFTFGQGTKVEIKRV[human IgG1 Fc with changes left out]

A450 (AU): 0.284 AU
B2: TNFα dAb Fc variant L47H (Fc fusion, name in Kabat numbering)
chain: DIQMTQSPSSLSASVGDRVTITCRASQAIDSYLHWYQQKPGKAPKLHIYSASNLETGVPSRFSGSGSGTDFTLTISSLLPEDFATYYCQQVVWRPFTFGQGTKVEIKRV[human IgG1 Fc with changes left out]

A450 (AU): 0.271 AU
B3: TNFα dAb Fc variant L47K (Fc fusion, name in Kabat numbering)
chain: DIQMTQSPSSLSASVGDRVTITCRASQAIDSYLHWYQQKPGKAPKLKIYSASNLETGVPSRFSGSGSGTDFTLTISSLLPEDFATYYCQQVVWRPFTFGQGTKVEIKRV[human IgG1 Fc with changes left out]

A450 (AU): 0.369 AU
B4: TNFα dAb Fc variant L47Q (Fc fusion, name in Kabat numbering)
chain: DIQMTQSPSSLSASVGDRVTITCRASQAIDSYLHWYQQKPGKAPKLQIYSASNLETGVPSRFSGSGSGTDFTLTISSLLPEDFATYYCQQVVWRPFTFGQGTKVEIKRV[human IgG1 Fc with changes left out]

A450 (AU): 0.903 AU
B5: TNFα dAb Fc variant L47Y (Fc fusion, name in Kabat numbering)
chain: DIQMTQSPSSLSASVGDRVTITCRASQAIDSYLHWYQQKPGKAPKLYIYSASNLETGVPSRFSGSGSGTDFTLTISSLLPEDFATYYCQQVVWRPFTFGQGTKVEIKRV[human IgG1 Fc with changes left out]

A450 (AU): 1.18 AU
B6: TNFα dAb Fc variant K45H (Fc fusion, name in Kabat numbering)
chain: DIQMTQSPSSLSASVGDRVTITCRASQAIDSYLHWYQQKPGKAPHLLIYSASNLETGVPSRFSGSGSGTDFTLTISSLLPEDFATYYCQQVVWRPFTFGQGTKVEIKRV[human IgG1 Fc with changes left out]

A450 (AU): 0.191 AU
B7: TNFα dAb Fc variant L46D (Fc fusion, name in Kabat numbering)
chain: DIQMTQSPSSLSASVGDRVTITCRASQAIDSYLHWYQQKPGKAPKDLIYSASNLETGVPSRFSGSGSGTDFTLTISSLLPEDFATYYCQQVVWRPFTFGQGTKVEIKRV[human IgG1 Fc with changes left out]

A450 (AU): 0.166 AU
B8: TNFα dAb Fc variant L46H (Fc fusion, name in Kabat numbering)
chain: DIQMTQSPSSLSASVGDRVTITCRASQAIDSYLHWYQQKPGKAPKHLIYSASNLETGVPSRFSGSGSGTDFTLTISSLLPEDFATYYCQQVVWRPFTFGQGTKVEIKRV[human IgG1 Fc with changes left out]

A450 (AU): 0.982 AU
B9: TNFα dAb Fc variant K39Q (Fc fusion, name in Kabat numbering)
chain: DIQMTQSPSSLSASVGDRVTITCRASQAIDSYLHWYQQQPGKAPKLLIYSASNLETGVPSRFSGSGSGTDFTLTISSLLPEDFATYYCQQVVWRPFTFGQGTKVEIKRV[human IgG1 Fc with changes left out]

A450 (AU): 1.4 AU
B10: TNFα dAb Fc variant L79G (Fc fusion, name in Kabat numbering)
chain: DIQMTQSPSSLSASVGDRVTITCRASQAIDSYLHWYQQKPGKAPKLLIYSASNLETGVPSRFSGSGSGTDFTLTISSLGPEDFATYYCQQVVWRPFTFGQGTKVEIKRV[human IgG1 Fc with changes left out]

A450 (AU): 0.256 AU
B11: TNFα dAb Fc variant L46Y (Fc fusion, name in Kabat numbering)
chain: DIQMTQSPSSLSASVGDRVTITCRASQAIDSYLHWYQQKPGKAPKYLIYSASNLETGVPSRFSGSGSGTDFTLTISSLLPEDFATYYCQQVVWRPFTFGQGTKVEIKRV[human IgG1 Fc with changes left out]

A450 (AU): 1.02 AU
B12: TNFα dAb Fc variant K39Y (Fc fusion, name in Kabat numbering)
chain: DIQMTQSPSSLSASVGDRVTITCRASQAIDSYLHWYQQYPGKAPKLLIYSASNLETGVPSRFSGSGSGTDFTLTISSLLPEDFATYYCQQVVWRPFTFGQGTKVEIKRV[human IgG1 Fc with changes left out]

A450 (AU): 0.234 AU
B13: TNFα dAb Fc variant L46Q (Fc fusion, name in Kabat numbering)
chain: DIQMTQSPSSLSASVGDRVTITCRASQAIDSYLHWYQQKPGKAPKQLIYSASNLETGVPSRFSGSGSGTDFTLTISSLLPEDFATYYCQQVVWRPFTFGQGTKVEIKRV[human IgG1 Fc with changes left out]

A450 (AU): 0.176 AU
B14: TNFα dAb Fc variant L78D (Fc fusion, name in Kabat numbering)
chain: DIQMTQSPSSLSASVGDRVTITCRASQAIDSYLHWYQQKPGKAPKLLIYSASNLETGVPSRFSGSGSGTDFTLTISSDLPEDFATYYCQQVVWRPFTFGQGTKVEIKRV[human IgG1 Fc with changes left out]

A450 (AU): 0.949 AU
B15: TNFα dAb Fc variant K39P (Fc fusion, name in Kabat numbering)
chain: DIQMTQSPSSLSASVGDRVTITCRASQAIDSYLHWYQQPPGKAPKLLIYSASNLETGVPSRFSGSGSGTDFTLTISSLLPEDFATYYCQQVVWRPFTFGQGTKVEIKRV[human IgG1 Fc with changes left out]

A450 (AU): 0.225 AU
B16: TNFα dAb Fc variant L73A (Fc fusion, name in Kabat numbering)
chain: DIQMTQSPSSLSASVGDRVTITCRASQAIDSYLHWYQQKPGKAPKLLIYSASNLETGVPSRFSGSGSGTDFTATISSLLPEDFATYYCQQVVWRPFTFGQGTKVEIKRV[human IgG1 Fc with changes left out]

A450 (AU): 0.172 AU
B17: TNFα dAb Fc variant L73D (Fc fusion, name in Kabat numbering)
chain: DIQMTQSPSSLSASVGDRVTITCRASQAIDSYLHWYQQKPGKAPKLLIYSASNLETGVPSRFSGSGSGTDFTDTISSLLPEDFATYYCQQVVWRPFTFGQGTKVEIKRV[human IgG1 Fc with changes left out]

A450 (AU): 0.257 AU
B18: TNFα dAb Fc variant L47A (Fc fusion, name in Kabat numbering)
chain: DIQMTQSPSSLSASVGDRVTITCRASQAIDSYLHWYQQKPGKAPKLAIYSASNLETGVPSRFSGSGSGTDFTLTISSLLPEDFATYYCQQVVWRPFTFGQGTKVEIKRV[human IgG1 Fc with changes left out]

A450 (AU): 0.152 AU
B19: TNFα dAb Fc variant L73S (Fc fusion, name in Kabat numbering)
chain: DIQMTQSPSSLSASVGDRVTITCRASQAIDSYLHWYQQKPGKAPKLLIYSASNLETGVPSRFSGSGSGTDFTSTISSLLPEDFATYYCQQVVWRPFTFGQGTKVEIKRV[human IgG1 Fc with changes left out]

A450 (AU): 0.193 AU
B20: TNFα dAb Fc variant L47P (Fc fusion, name in Kabat numbering)
chain: DIQMTQSPSSLSASVGDRVTITCRASQAIDSYLHWYQQKPGKAPKLPIYSASNLETGVPSRFSGSGSGTDFTLTISSLLPEDFATYYCQQVVWRPFTFGQGTKVEIKRV[human IgG1 Fc with changes left out]

A450 (AU): 0.21 AU
B21: TNFα dAb Fc variant L78H (Fc fusion, name in Kabat numbering)
chain: DIQMTQSPSSLSASVGDRVTITCRASQAIDSYLHWYQQKPGKAPKLLIYSASNLETGVPSRFSGSGSGTDFTLTISSHLPEDFATYYCQQVVWRPFTFGQGTKVEIKRV[human IgG1 Fc with changes left out]

A450 (AU): 0.215 AU
B22: TNFα dAb Fc variant L47D (Fc fusion, name in Kabat numbering)
chain: DIQMTQSPSSLSASVGDRVTITCRASQAIDSYLHWYQQKPGKAPKLDIYSASNLETGVPSRFSGSGSGTDFTLTISSLLPEDFATYYCQQVVWRPFTFGQGTKVEIKRV[human IgG1 Fc with changes left out]
